This note sets out measurements from ChEMBL document CHEMBL4888484, “Replenishing the malaria drug discovery pipeline: Screening and hit evaluation of the MMV Hit Generation Library 1 (HGL1) against asexual blood stage Plasmodium falciparum ,using a nano luciferase reporter read-out” (2022).

In all, about 150,000 compounds went through this assay and about 540 (0.36%) showed an effect of 50% or more. Some of the results follow.

This experiment relates to Plasmodium falciparum. Description: Primary screen in NF54 nanoGlo assay, in single point, at 2uM, 72h; a lower Z score goes with more inhibition. The class given is functional, Erythrocyte. To be noted: timepoint 72 hour.
As usually defined, the % Inhibition is the change of the read-out against control, counted positive when it falls. As for `O=C(Cn1cnc2ccccc2c1=O)N1CCN(c2ccc(C3CC3)nn2)CC1`, the “% Inhibition” value came to 10% and the Z score was -1.25.
The corresponding values for `CC(C)(O)C#Cc1ccc(C(=O)N2CCC[C@H](c3nnc[nH]3)C2)o1` are -9% and 1.13.
For `Cc1ccc(-n2c(=O)c3sccc3n(CC(=O)NCc3ccc(F)cc3F)c2=O)cc1C`, the “% Inhibition” value stood at 33% and the Z score was -4.77.
The corresponding values for `CC(C)N(CC(=O)Nc1nc(CC(=O)N[C@@H](Cc2ccccc2)c2ccccc2)cs1)C(=O)c1ccccc1` are -8% and 0.92.
The corresponding values for `O=C(Nc1cnc(N2CCCC2)nc1)c1ccc(Br)cc1` are -18% and 1.6.
As for `Cc1sccc1C(=O)NC1CCC(O)(c2cccc(F)c2)CC1` (centres undefined), the “% Inhibition” value is -10% and the Z score is recorded as 1.24.
Regarding `Cc1ccc(C)c(-c2cn3c(C(=O)N(C)Cc4cc(C)no4)csc3n2)c1`, the “% Inhibition” value was 5% and the Z score is -0.62.
Take `NC(=O)[C@@H]1COCCN1Cc1csc2ccccc12`: the “% Inhibition” value is recorded as -14% and the Z score was 1.82.
Regarding `O=C(NCC1CCOCC1)c1cc(C(F)F)n[nH]1`, the “% Inhibition” value is given as -4% and the Z score worked out at 0.67.
The corresponding values for `CC(C)C(NC(=O)c1ccccc1F)C(=O)NCC(CO)CC1CCCC1` (centres undefined) are -34% and 3.98.
The corresponding values for `COc1cccc(C2=C[C@@H](c3cccc(OC)c3)N3N=CNC3=N2)c1` are 3% and -0.41.
The corresponding values for `CCn1cc(CN(C)S(=O)(=O)CCOc2ccccc2F)c(C)n1` are -2% and 0.31.
On to `O=C1NC2(CCN(Cc3ccc(F)cc3)CC2)N=C1c1cccc(F)c1`, for which the “% Inhibition” value was -10% and the Z score is 1.47.
The corresponding values for `Cc1c(S(=O)(=O)c2ccc(Cl)cc2)c(N)n(CCc2ccccc2)c1C` are -2% and 0.21.
As to `Cc1ccc2oc(-c3nnc(C(=O)N4CCN(c5cc(Cl)ccc5C)CC4)o3)c(C)c2c1`, the “% Inhibition” value is reported as 18% and the Z score was -2.15.
The corresponding values for `COc1ccccc1C(=O)O[C@@H](C)c1cnc(C2OCCO2)s1` are -21% and 1.85.
The corresponding values for `O=C1CN(c2cccc3ccccc23)C(=O)N1c1ccc(Cl)c(Cl)c1` are 13% and -2.45.
The corresponding values for `C[C@@H](CC(=O)N1CCCCCC1)NCC(=O)NC(C)(C)C` are -7% and 1.3.
For the compound `CCc1ccc(-c2cc3n(n2)C[C@@](C)(C(=O)NC2CCCCCCC2)N(C2CCCCC2)C3=O)cc1`, the “% Inhibition” value is reported as -2% and the Z score worked out at 0.31.
The corresponding values for `CCN(CCO)S(=O)(=O)c1ccc(Cl)cc1F` are 0% and 0.02.
Consider `CC(COC1CCOC1)NC(=O)N1CCCN(C)c2ccc(F)cc21` (centres undefined), for which the “% Inhibition” value is on record as -7% and the Z score stood at 0.86.
For the compound `O=C(Nc1cc(F)ccc1F)N1CCCCCC1CC(O)c1ccccc1` (centres undefined), the “% Inhibition” value is recorded as 0% and the Z score is recorded as -0.02.
The corresponding values for `CN(C)Cc1nnc(C(=O)N2CCC(CCCc3ccccc3)CC2)o1` are -3% and 0.67.
The corresponding values for `CC(CN(C)C(C)C(=O)NCC1CCCO1)c1ccccc1` (centres undefined) are -3% and 0.6.
The corresponding values for `CCn1c(Cc2ccccc2O)nnc1N1Cc2ccc(C#N)cc2C1` are -17% and 2.94.
For the compound `Cc1cccc(-c2nc3ccc(C(=O)NCCN(C)C4CCCCC4)cc3nc2-c2cccc(C)c2)c1`, the “% Inhibition” value was -1% and the Z score came out at 0.18.
The corresponding values for `Cc1nccc(N2CCC[C@H](CNC(=O)Cn3ccnc3C)C2)n1` are -11% and 1.41.
Take `Cc1cc(C)c(CNC[C@H](C)n2cncn2)c(C)c1CO`: the “% Inhibition” value was -3% and the Z score is 0.5.
The corresponding values for `CCCn1ncc(CN(Cc2ccccc2OC)C2CC2)c1C` are 3% and -0.56.
The corresponding values for `CC(C)c1nc(CN2C[C@H]3CN(C4CCCCC4)C[C@@]3(C(=O)O)C2)no1` are 15% and -1.96.
The corresponding values for `O=C(N[C@H]1CCN(Cc2coc(-c3ccccc3)n2)C[C@@H]1O)c1cccnc1` are -14% and 2.74.
On to `COc1cc(F)c([C@H](C)NCc2nnc(C)s2)cc1OC`, for which the “% Inhibition” value is reported as 9% and the Z score is -1.06.
Take `O=S(=O)(c1cccc2ccoc12)N1CCOCC12CCC2`: the “% Inhibition” value is on record as -9% and the Z score turned out to be 0.91.
The corresponding values for `C=CCNC(=O)[C@@H](C#N)C(=O)c1cc(F)c(F)c(F)c1` are 6% and -0.92.
The corresponding values for `O=S(=O)(c1ccc2c(c1)OCCCO2)N1CCCCCC1` are 2% and -0.43.
The corresponding values for `COC(=O)c1cc(C)nc2c1c(=O)n(Cc1ccc(Cl)cc1)c(=O)n2-c1ccccc1OC` are -7% and 1.06.
Take `NC(=O)[C@H]1CCN(C(=O)c2cccc3sc(C(F)(F)F)nc23)C1`: the “% Inhibition” value was determined as 1% and the Z score is given as -0.11.
The corresponding values for `Cc1nc(-c2ccc(C)c(S(=O)(=O)NCc3ccccc3C)c2)cs1` are 24% and -3.18.
The corresponding values for `Cc1cc(OCCN(C)C)cc(C(C)C)c1` are 1% and -0.14.
The corresponding values for `Cc1noc(Cn2nnnc2-c2ccncc2)n1` are -7% and 0.95.
For the compound `CCc1nnc(C(=O)NC2(c3ncccn3)CCC2)s1`, the “% Inhibition” value was -8% and the Z score was determined as 1.12.
The corresponding values for `CNc1ccc(Br)cc1F` are 9% and -0.77.
